# Experimental data published in the supplement of paper PMC10681739.
# Over roughly 2,700 sequences, “arbitrary fluorescence units” has its median near 4,100; the highest 2% begin near 54,000. The list shows a part of the results.
# Biological target: T1, ETS1 (UniProt P14921)
# T1 sequence: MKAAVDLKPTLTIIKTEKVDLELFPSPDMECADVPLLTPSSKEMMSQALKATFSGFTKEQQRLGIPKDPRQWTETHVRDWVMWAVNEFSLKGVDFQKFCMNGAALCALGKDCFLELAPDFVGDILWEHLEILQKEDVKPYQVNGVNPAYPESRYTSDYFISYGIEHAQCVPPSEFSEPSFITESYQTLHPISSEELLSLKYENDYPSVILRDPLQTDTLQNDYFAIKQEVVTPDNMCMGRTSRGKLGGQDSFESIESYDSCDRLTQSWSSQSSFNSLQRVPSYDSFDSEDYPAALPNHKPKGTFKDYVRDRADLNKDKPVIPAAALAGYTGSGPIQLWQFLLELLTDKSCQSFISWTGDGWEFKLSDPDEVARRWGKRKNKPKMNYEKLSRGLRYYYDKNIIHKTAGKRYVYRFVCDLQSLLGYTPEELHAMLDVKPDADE
# Test: ETS1 binding intensity (PBM fluorescence) (arbitrary fluorescence units); higher = stronger binding
# Details: ETS1 concentration 10 nM
# Procedure: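 gcPBM on wild-type 36-bp genomic probes with two neighbouring ETS1 sites (4-24 bp apart). Recombinant human ETS1 (10 nM) was detected with anti-ETS1 antibody fluorescence. Values are medians over 3 replicate spots. The probes sit in constant array flanks that are not printed.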
row,Sequence,ETS1 binding intensity
1,CTTCCCTGGTAACATCCGGCATCCTGGGGCTGCCAA,18800
2,CGCGACTGTGAATTTCCGTTTCCGGCGGTGTCCATG,21100
3,GCTGGTGCTCCAGGATGCGTTTCCTGCCCGCGCACC,5880
4,CAGCTGTTTCCTCGTATTTCTGCAGCTTCCTCTTTC,1170
5,ATCTGGAGGGGAAGTGGGTTGGCTTCCTGCCAGGGC,2480
6,GTCGCGGCTTCCGCTGAGCTGCCTGTTCCGGGGCAC,18800
7,GCCCTCAGGAAACTTAGAATCATGGCGGAAGGCGAA,221
8,CTGAGCCCTCTTCCGTCACACAGGAAGCTGCAGGGC,3770
9,CCACAGGAAATTATGATAGCAAAAGTCTTCCTGTCG,3310
10,AGGCCCTCTGCTTCCTAAACACTTCCCTTGAAGGGC,392
11,GCATTTCCCTCTTTTGAACAGCAAAATAGGAAATTG,5250
12,ATTTGGCCTCACAGGAAACAGGAAATACCAGAAAAG,6530
13,CTGATAAGGATGTGGGTAGCTATAAAGGAAATATTT,232
14,TGCGGGGCGGAAGCCGGGGCGTGACTTCCGGCGCCG,11600
15,AGACCATCCGGCTGAATCAGAGCCCGGAGGAAATAC,8540
16,CCGTTTCCCAGGAGCCCCAGGTGGGGTCTTCCGGTT,2040
17,GACGTTCCGCTGCGCCCCGCGCAAAACCGGAAGTAC,8560
18,CGCCATACCTGGCTTCCGCTTCCGGTGGCTTCTCGT,28200
19,ACGCCCTACTTCCGGCTGCCAGCTTCCTGTTATGGT,50300
20,CTCCCCGCGGCGGATGCGCGCGGAACGGATGGGCGC,762
21,GAGGCAGGAAAGAACTGGGCAGGTCCAGGAAACAGA,288
22,ACACTTCCTTTGAAAAACAGAATGTCACTTCCTCAG,16300
23,CGGCTGTCTGTTTCCGCTCTAAGGAAACTCAGAGCG,20000
24,CTGGCTTCCTTTTACCACCACTGTCTGCTTCCTCAT,3880
25,CCGAGGGGAGGGAGGAAGTGGGAAGTCACCCCTGTC,1680

row,Sequence,ETS1 binding intensity
1,TTGTTTGAACAGGAAGAGTCACTTCCTTGTTATGCT,2390
2,GGTTAGGCTGCGTTTCCTGTTTCCTGTAGCTTTATG,17200
3,TCTGGCCCTTCCTGCCCCAGGGACTTCCTGTTGCTA,11900
4,GCTCTCATCCGCACTGTCTCTTACAACATCCTGGCA,3020
5,TAGAGGGAGACAGGAAGACAGGAAGGGGAGTATGCT,1530
6,CTCATGGGAAATGTAGTCCTCATCGGCTTCCGCATC,229
7,CCCACGAGGGAAGTGTCCCCTGCCCATCCTGCCTTA,188
8,CAAGAACGCATACATCCTCAGGAAACTCACACTTCG,580
9,CCGGGGCGGAACCTGGACTCCCCGCCTTCCTCCCAC,179
10,GACTGCACTTCCTAAAACAAGCACATCCCCATACCT,2960
11,TACCAGGAAGTCTCCAAAGGAGGGAGCAGGAAGAGA,992
12,AGTCACTTCCCCCGCTGGGGACGCGCTTCCTCCCCG,3860
13,GTGGACTTCCTTGACCCAGACTTTCAGGAAGGAGCT,4530
14,GGCCGCTCCCCGGAAGGCCTCATCCTGCGCGGCTGG,989
15,TGGAGATCCAGGAAGCAGGACAGGATGTGTGGTGCT,2750
16,GAGGCGCTTCCTCAGTTGGACTCCACTTCCTCTCCG,4590
17,ATTTTTAAAACAGGAAAACGTTTCCCTTACTCGAAC,799
18,CCCTGCGTTTCCCTCATGAGCTTCTTCCGCCCGCAA,788
19,GAGAGCGGAACACTGCGTACGCGCACTTCCGGTCTT,21400
20,GCGCGGAAAACCCGGAAAGTGGATTTCGCCCCCGCT,297
21,GAGGCCGGATGTGAGTGGAGCGGCCATTTCCTGTTT,28400
22,GATTAAAGGGATGTGACCCAGTTACTTCCTTTGCCC,453
23,ACGTGCGCGGAAATGGCACGCCCGTTTCCGTGTGAA,1400
24,AGCCGGCTTCCGTGAGGTACGTCTACTTCCGGTTAA,20200
25,CCTGAAACATACAGGAAAGGGAATTCTGGGAAACGT,345

row,Sequence,ETS1 binding intensity
1,GCCACGGGGAGTCCGGAAGGAAGCCACTGCCTGGGC,633
2,CGCACCGCGCTTCCTCCCTTTCTTTCCCTTCCTGCG,5430
3,CGCCGCCGACAAGCGGAACATCCTCCGTACACGTCC,356
4,CTGTCTCAGGAAACGGCGGCCGATTTCCTGTCTCTG,4790
5,GGCGCCGCCCCCGGAAGTACTTCCCCTTAAAGGCTG,19600
6,TATATAAACAGGAAGGAGCAGATTTCCTTTCTGAAG,4860
7,CGCCGCATCCGGTAGCGAGAGTTCAACTTCCTGACT,56600
8,GGCGCCGGAAGTGAGCTGCGCAGCGCCGGAAGCGGC,32400
9,CAGGCGCTGGCAGGATTGCGTTTCCGCCCAAGGCCA,1670
10,ACAATGAGAGGAAATGGGGCTGCAGGAAATGGCCAT,2770
11,AAGTCAGGAAACAACAGATGCTACAGAGGATGTGGA,360
12,AGGCAGGGGAAATGTCTTTACCAGCTTCCTCCTGGT,248
13,ACGGCGGGAAGTTAGGGGCTAGACTGGGAAGTGGGG,452
14,AAAGCAGGAAACAACAGATGCTAGAGAGGATGTGGA,1650
15,CTAAGCCAGAGGAAGTGCTTGAGGAAGTAATGTGTT,1110
16,GGTACACAGGATGTCTCAGTTTTACTTCCTACAGCT,4680
17,GACCGCGCTCTACTTCCTGATCCGGGCGTTTAGGTG,6250
18,ACAAGAAAACGGTTTCCGGTTTCCGTCTTCAATTTG,32000
19,CAGGGCCTCATCCGGGTCAGAGCCGGAACCTGGGGA,4230
20,GGCCACATCCTGCTCACTCACTCAGTTTCCTGCTAG,34400
21,GAAAGAGAAAGGAAATAGAGCAAGGATGTGCCCGGT,1290
22,CAGCAGAGCTTCCGGTCTTACCCAGGAAGTCTACAC,52000
23,CCAGCAGGAAGCCACCCTGACTGAACTTCCGGGGGA,6030
24,ACTGGGAATCGGATGTGTCTCATATCCTCTGATTCT,722
25,TCAGTGGGCGGAAGAGGTGGCCCCGGATGCTGCGGC,1430

row,Sequence,ETS1 binding intensity
1,CAGCCAGCAGGAAGCCAGCTAACAGGAAGGTAACGC,1880
2,AGTAATAGAAAACAGGAAGGAAGTGGGTTTGTAAGA,1430
3,TCAGAAGGAAGTGTGTGACCAAGGAGAGGAAATTAG,554
4,AAAGCTCTTATTTCCCAGGGCTTCCGTTTCCGTATT,1310
5,TGGGACAGGAAGTGAAAGAGACCACATCCTCTTGAA,16900
6,AGCAGAGGAGGAAATGAAGACACAGGAAAGTCAGGT,904
7,TTCATTTCCGGCGGCGGAGGCGGCAGTTTCCTAAGC,73000
8,TTGTTTGGGAAATGGCAGAGGGACCTTCCTGTTAGG,241
9,CAGGTTGTGGGAGGAAGAAAGGAAGTGGCTTGGCTA,502
10,GCCCCGGAACAAGATCTGGGGAGGGACAGGAAGTGT,2060
11,GTCCCAGGAAGAAGTGCATGCCTAGCTTCCTGCCAG,1060
12,TCCGCCGGAAGCCGGTCAGCGCCAGCCGGAAGCCCC,5560
13,GGTGATACAGGAAACTGTCTTGTCTTCCTCCCCTGT,2960
14,CGCCCATTTCCTGAACATGCCCCCTTTCCTGCCCAA,9930
15,TTCCTCAGGGAAGTTCGGGTGAGAGGAAGTGCCTGC,228
16,CACACTTCCGGGTCCCATGCCAGTTGCATCCGCGGT,45900
17,CAGTGAGTAGGGAAGTGGAGTGTTTCCTGACGGTTG,281
18,TGGCTGAGAGGAAGTTCAGGAGGGGAAGGATGTGGT,1060
19,GCAGAGAAAAGGCAGGAAGGAAGTGGACAAACTTGC,1370
20,TGAGCTGTGTTTCCGGTCTTACATCCTTCTCAACAG,31700
21,TAGGCGGGGTTCCGGCTTCTCCAAGGAAGTGGGGCG,2500
22,GTCCGGAAATAGAGGCGCACATTGGGAGGGAAATGC,10100
23,CTTGGACTTCCGCCTCCCGGCCTCCGGAAGGCAGTG,26200
24,TGGCTAGACAGACTTCCGCCATCCTGACTCCCGCCC,13800
25,GCGCCACTTCCGGCAGCGAAGTCACTTCCGCGGAGG,57600

row,Sequence,ETS1 binding intensity
1,GCAGTCAGGCGGAAACGGCCCCTTTCCTGCCTCCTT,4290
2,GGGTCTTCCGGCCCTCTCGAAAATCATTTCCGGCAT,22500
3,ACCAGGGCTGCTTCCTCACATTTCCGGTCCTGAAAA,27700
4,GCCTGTGGTGCCTTCCGCAGCGGAAATGGCGCGCCG,3410
5,GGCCTCCACAGGAAGTGGCAAAGGAAGCAGCTTTCA,16700
6,GGCTGGGGCGGATGCCGGGGCTGTTCCGGGCCCTCC,1230
7,GAAGGGATCCGCCGGGGCGCACCCTCTTCCGTCCCC,209
8,GCACCAAGGGAAGTGGTTAAAACAGGAAGACCCGCT,919
9,TGAGAGAGGAAGCATGAGAGAGAGGAGGAAGTACCA,354
10,AACACCCTTCCGCCATGACCCAATTCGGAAGTGCCA,4240
11,CCCGCGCTTCCGGAGGCGGAGAGAGCGGAAAGGGAA,17100
12,CACCGCTTCCGTCGCTGCTGTAGTCGCTTCCTGCGG,22300
13,CAGCCTTCCGGCTGCGGAGCTGCTCCAGGAAGTCTC,10800
14,ACAGCTCCCATCCTGCTTAGAGACTTCCTGTAATCT,6520
15,TGCAAACTTCCTCTCTGCAGGGGGTGGGAAGTGCTG,12600
16,GTCAACAGGAACACAGGACTCTGACTTCCTTGTTGT,377
17,GAGGCGGGACTTCCTACAGCACTTCCGGCCAGAGCC,26500
18,TAACTAGCTCCAGGAAGGGCAGGAAATGACACATGT,1500
19,TTTAGTTCCGGCCTCTTTGCACGTCATTTCCGGCAC,16200
20,AATTTACTTCCTGGTGAATAGAGACAGGAAGTAAAT,13800
21,GAGGAGCGGCCGGAAGTAGCCGGAATCTCTGAAAGA,28200
22,GTTCGGTTCCGCCCCGTGCATTGTGCTTCCGCTCGG,2660
23,GAGCCGCGCAGGAAGCTGGGACCGGAACCTCGGCGG,1920
24,CCAATTCTCTTCCTGGACACACAGGAAGATGACATT,1870
25,GCGACGGAAAGAAAGCCGCCGGACCCACTTCCGGTG,17100
